Data taken from patent publication US20100173832A1, “ANTICANCEROUS POLYMERIC AGENTS” (TECHNION RESEARCH & DEVELOPMENT FOUNDATION LTD., priority 2007, published 2010).
At least one peptide structure holds a part that was inferred or is arguable (an end, a ring closure or a residue). Non-standard residues stand in square brackets, D forms with d. Residues, ends and D or L forms follow the SMILES beside them. *: point of attachment. Lauroyl = CCCCCCCCCCCC(=O)*; 12Ado = NCCCCCCCCCCCC(=O)O; Octanoyl = CCCCCCCC(=O)*; Aoc = NCCCCCCCC(=O)O

Legend:
[1] = Hydrophobicity by reverse-phase HPLC (% acetonitrile at elution); assay type: physicochemical; conditions: for Hydrophobicity (% ACN): percent acetonitrile at elution, C18 reverse-phase HPLC gradient
[2] = tested on: TRAMP-C2 allograft tumors; assay: TRAMP-C2 allograft tumor treatment, started at tumor volume 40-50 mm^3; assay type: in vivo, C57BL/6 mice
[3] = tested on: TRAMP-C2 allograft tumors; assay: TRAMP-C2 allograft tumor, early treatment 24 hours after inoculation; assay type: in vivo, C57BL/6 mice; conditions: 5 mg/kg daily
TRAMP-C2 tumor = assay: In vivo intratumor efficacy, TRAMP-C2 tumor; set-up: species or system C57BL/6J mice
[4] = tested on: drug-resistant 2008/MRP1 cells; assay: Cytotoxicity against drug-resistant 2008/MRP1 cells; conditions: FIG. 11A
[5] = tested on: ovarian carcinoma 2008 drug-sensitive cells; assay: Cytotoxicity against drug-sensitive ovarian carcinoma 2008 cells; conditions: FIG. 11B
MCF-7 cells = assay: Kinetic cytotoxicity study (XTT), MCF-7 cells; assay type: cell-based, human; conditions: 8 multiples of LC50, FIG. 5
TRAMP-C2 cell line = assay type: cell-based; conditions: mouse prostate cancer TRAMP-C2 cells, XTT assay
Text: Transgenic adenocarcinoma mouse prostate cells (TRAMP-C2);
(§1) As a routine cancer cell killing assay for assessment of antitumor activity, 2,3-bis(2-methoxy-4-nitro-5-sulfophenyl)-2H-tetrazolium-5-carboxanilide inner salt (XTT) reduction assay was used, utilizing a commercial kit such as, for example, Cell Proliferation XTT Kit, Cat. No. 20-300-1000, Biological Industries Ltd., Kibbutz Beit Haemek, Israel. XTT is a tetrazolium salt which is cleaved to formazan colored compounds by the mitochondrial dehydrogenase enzymes indicating proper mitochondrial activity in intact cells.
(§2) Thereafter, a series of increasing concentrations of the polymers were added. After another 24 hours of incubation, XTT reaction solution was added (50 μl of XTT per 100 μl of cell culture medium). The optical density of the cells was measured at 450 nm by ELISA plate reader after 2-4 hours XTT incubation. Cell viability was determined relative to a control having no polymer added thereto.
“Mouse prostate cancer TRAMP-C2” represents the lethal concentration in μM as measured against TRAMP-C2 cell line, measured as described hereinabove in the cell proliferation XTT assay (column 5 in Table 3);

MCF-7 cell line = assay type: cell-based; conditions: human breast adenocarcinoma MCF-7 cells, XTT assay
N-417 cell line = assay: XTT cell viability assay, N-417 cells; assay type: cell-based; conditions: human small-cell lung carcinoma N-417 cells
Text: Variant small cell lung cancer cells (N-417, SCLC);
as §1, §2
“Human breast cancer MCF-7” represents the lethal concentration in μM as measured against MCF-7 cell line, measured as described hereinabove in the cell proliferation XTT assay (column 6 in Table 3); “Human small-cell lung carcinoma N-417” represents the lethal concentration in μM as measured against N-417 cell line, measured as described hereinabove in the cell proliferation XTT assay (column 7 in Table 3);

Row | SMILES | Hydrophobicity (% ACN) [1] | time to kill the entire MCF-7 cell population (MCF-7 cells) | TRAMP-C2 lethal concentration (TRAMP-C2 cell line) | MCF-7 lethal concentration (MCF-7 cell line) | N-417 lethal concentration (N-417 cell line) | ACN (%) (percent of acetonitrile in the HPLC-RP gradient mobile phase at which the polymer was eluted; estimated hydrophobicity) [1] | further results
1 | NCCCCCCCCCCCC(=O)N[C@@H](CCCCN)C(=O)N[C@@H](CCCCN)C(=O)NCCCCCCCCCCCC(=O)N[C@@H](CCCCN)C(=O)N[C@@H](CCCCN)C(=O)NCCCCCCCCCCCC(=O)N[C@@H](CCCCN)C(=O)N[C@@H](CCCCN)C(=O)NCCCCCCCCCCCC(=O)N[C@@H](CCCCN)C(N)=O (H-[12Ado]KK[12Ado]KK[12Ado]KK[12Ado]K-NH2) | 39.5 % ACN | – | – | – | – | – | tumor progression (dose response) ([2]; 2.5 mg/kg daily injection): milder effect; tumor progression (tumor volume, tumor weights) ([2]; 5 mg/kg daily injection, 28 days): inhibited significantly; fraction of treated mice not affected at all ([3]; early treatment): 1/7; fraction of treated mice with milder effect ([3]; early treatment): 1/7; tumor progression (tumor volume, tumor weights) ([3]; early treatment, FIG. 9): significantly inhibited; treated mice with inhibited tumor growth ([3]; early treatment, n=7): at least 5 out of 7; tumor emergence ([3]; treatment one day post inoculation): did not prevent tumor emergence; tumor progression (tumor volume, tumor weights) (TRAMP-C2 tumor; 5 mg/kg intratumorally, daily day 8-13 and day 20-27): significantly inhibited; average weight of tumors extracted at day 28 (TRAMP-C2 tumor; 5 mg/kg intratumorally, PBS control 210±18 mg): 7 ± 5 mg; treated mice in which the tumor completely disappeared (TRAMP-C2 tumor; day 14, six days after treatment onset): 7 out of 8; time dependent cytotoxic effect (time-kill curves), 2008/MRP1 cells [4]: extremely rapid in terms of minutes; time dependent cytotoxic effect (time-kill curves), 2008 cells [5]: extremely rapid in terms of minutes
2 | CCCCCCCC(=O)N[C@@H](CCCCN)C(=O)N[C@@H](CCCCN)C(=O)NCCCCCCCCCCCC(=O)N[C@@H](CCCCN)C(=O)N[C@@H](CCCCN)C(=O)NCCCCCCCCCCCC(=O)N[C@@H](CCCCN)C(=O)N[C@@H](CCCCN)C(=O)NCCCCCCCCCCCC(=O)N[C@@H](CCCCN)C(N)=O [C8K(KNC12K)3NH2] (Octanoyl-KK[12Ado]KK[12Ado]KK[12Ado]K-NH2) | 43.3 % ACN | ≤ 20 min | – | – | – | – | –
3 | CCCCCCCCCCCC(=O)N[C@@H](CCCCN)C(=O)NCCCCCCCC(=O)N[C@@H](CCCCN)C(=O)N[C@@H](CCCCN)C(=O)NCCCCCCCC(=O)N[C@@H](CCCCN)C(=O)N[C@@H](CCCCN)C(=O)NCCCCCCCC(=O)N[C@@H](CCCCN)C(=O)N[C@@H](CCCCN)C(=O)NCCCCCCCC(=O)N[C@@H](CCCCN)C(N)=O [C12(KNC8K)4NH2] (Lauroyl-K[Aoc]KK[Aoc]KK[Aoc]KK[Aoc]K-NH2) | – | – | >16 µM | >16 µM | >16 µM | 45.9% | –
4 | CCCCCCCCCCCC(=O)N[C@@H](CCCCN)C(=O)NCCCCCCCCCCCC(=O)N[C@@H](CCCCN)C(=O)N[C@@H](CCCCN)C(=O)NCCCCCCCCCCCC(=O)N[C@@H](CCCCN)C(N)=O [C12(KNC12K)2NH2] (Lauroyl-K[12Ado]KK[12Ado]K-NH2) | 53.3 % ACN | ≤ 120 min | – | – | – | – | –
5 | NCCCC[C@@H]1NC(=O)CCCCCCCCCCCNC(=O)[C@H](CCCCN)NC(=O)CCCCCCCCCCCNC(=O)[C@H](CCCCN)NC(=O)CCCCCCCCCCCNC(=O)[C@H](CCCCN)NC(=O)[C@H](CCCCN)NC(=O)CCCCCCCCCCCNC(=O)[C@H](CCCCN)NC(=O)CCCCCCCCCCCNC1=O [Cyclic-K(NC12K)5] (cyclo(K[12Ado]K[12Ado]K[12Ado]K[12Ado]K[12Ado]K)) | – | – | >16 µM | 10.5 ± 0.5 µM | >16 µM | 46.6% | –
